Out of some 310,000 compounds screened, about 14,000 (4.5%) showed an effect of 50% or more. Effects have a minus sign here. Some of the results follow.
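Further: peak tail current of the secondary pulse compared with the same well before compound.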

Chain of human ether-à-go-go-related gene (hERG) potassium channel (Q12809 whole entry, looked up): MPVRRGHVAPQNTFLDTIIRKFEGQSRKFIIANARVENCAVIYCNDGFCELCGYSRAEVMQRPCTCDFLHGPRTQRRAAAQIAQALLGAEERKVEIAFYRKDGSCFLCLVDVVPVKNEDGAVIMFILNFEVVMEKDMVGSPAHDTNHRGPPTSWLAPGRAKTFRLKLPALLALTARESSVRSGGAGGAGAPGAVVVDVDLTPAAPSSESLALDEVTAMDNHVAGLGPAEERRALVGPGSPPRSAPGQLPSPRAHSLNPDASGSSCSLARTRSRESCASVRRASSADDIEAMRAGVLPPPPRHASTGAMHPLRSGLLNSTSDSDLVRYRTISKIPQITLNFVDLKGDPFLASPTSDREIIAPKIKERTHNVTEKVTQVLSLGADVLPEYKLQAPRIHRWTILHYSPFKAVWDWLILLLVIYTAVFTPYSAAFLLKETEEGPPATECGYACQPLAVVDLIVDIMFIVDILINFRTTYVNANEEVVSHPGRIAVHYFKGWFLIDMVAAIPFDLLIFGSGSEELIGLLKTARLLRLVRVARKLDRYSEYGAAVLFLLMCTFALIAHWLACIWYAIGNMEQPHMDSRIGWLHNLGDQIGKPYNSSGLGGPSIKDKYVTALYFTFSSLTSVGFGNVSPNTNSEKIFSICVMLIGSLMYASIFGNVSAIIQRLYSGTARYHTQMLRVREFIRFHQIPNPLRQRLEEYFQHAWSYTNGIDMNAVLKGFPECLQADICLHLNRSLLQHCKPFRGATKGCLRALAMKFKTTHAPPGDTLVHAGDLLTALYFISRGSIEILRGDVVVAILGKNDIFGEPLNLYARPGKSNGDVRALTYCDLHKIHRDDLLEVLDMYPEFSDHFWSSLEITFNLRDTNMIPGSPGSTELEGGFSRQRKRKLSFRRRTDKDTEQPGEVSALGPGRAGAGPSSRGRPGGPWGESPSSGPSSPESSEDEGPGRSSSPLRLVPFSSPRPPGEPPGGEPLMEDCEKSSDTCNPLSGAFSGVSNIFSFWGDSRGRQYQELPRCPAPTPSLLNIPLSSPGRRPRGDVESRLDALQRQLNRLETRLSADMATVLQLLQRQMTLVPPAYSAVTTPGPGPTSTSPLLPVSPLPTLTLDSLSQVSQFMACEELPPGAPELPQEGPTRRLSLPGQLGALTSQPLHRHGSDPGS

The test has as its target human ether-à-go-go-related gene (hERG) potassium channel (human, UniProt Q12809). The test is described as follows: primary screen, population patch clamp on CHO cells stably expressing hERG.
Regarding `CCOc1ccccc1-c1nnc(CS(=O)(=O)c2ccccc2)o1`, the “hERG current change (%, negative = inhibition) at 10uM” value was -52.5%.

In the case of `COc1ccc(OCCNC(=O)c2ccc(C)cc2)cc1`, the “hERG current change (%, negative = inhibition) at 10uM” value is 6.99%.

With `O=C(Cn1c(=O)oc2cc(S(=O)(=O)N3CCCC3)ccc21)NC1CCCc2ccccc21` (stereo not drawn), the “hERG current change (%, negative = inhibition) at 10uM” value was 5.12%.

`Cc1ccc(NC(=O)C(=O)NCCOc2ccccc2Cl)cc1`: the “hERG current change (%, negative = inhibition) at 10uM” value is reported as 16.3%.

As for `COCC(=O)Nc1nnc(SCC(=O)N2C(C)CCCC2C)s1` (stereo not drawn), the “hERG current change (%, negative = inhibition) at 10uM” value was determined as 15.2%.

For `CCCCN(C)CCCNC(=O)c1cc(=O)[nH]c2ccc(S(=O)(=O)N3CCCCC3C)cc12` (stereo not drawn), the “hERG current change (%, negative = inhibition) at 10uM” value is recorded as 13.9%.

`COCCn1nnnc1CN1C2CCCC1CC(NC(C)=O)C2` (stereo not drawn): the “hERG current change (%, negative = inhibition) at 10uM” value is listed as -6.26%.

Turning to `O=C1CC(C(=O)N2CCN(c3ccccn3)CC2)CN1Cc1ccccc1Cl` (stereo not drawn), the “hERG current change (%, negative = inhibition) at 10uM” value is listed as -42.3%.

For the compound `Nc1nnc(-c2cc3ccccc3oc2=O)s1`, the “hERG current change (%, negative = inhibition) at 10uM” value was found to be 15.6%.

As to `O=C(Nc1cccc(C(F)(F)F)c1)C(Sc1cccc[n+]1[O-])c1ccccc1` (stereo not drawn), the “hERG current change (%, negative = inhibition) at 10uM” value is given as -42.7%.

Consider `COc1cccc(C(=O)N/N=C/c2ccc(OC3CSC3)cc2)c1`, for which the “hERG current change (%, negative = inhibition) at 10uM” value is 5.4%.

For `O=C(NCCCN1CCCCC1)C1CCC(CNS(=O)(=O)c2cccc3nsnc23)CC1` (stereo not drawn), the “hERG current change (%, negative = inhibition) at 10uM” value stood at 9.74%.

Regarding `COc1cc(-c2noc(-c3ccco3)n2)cc(OC)c1OC`, the “hERG current change (%, negative = inhibition) at 10uM” value was found to be 11%.

For `Cc1[nH]c2ccc(C(=O)N3CCCCC3)cc2c1C`, the “hERG current change (%, negative = inhibition) at 10uM” value was -20.7%.

Regarding `Cc1cc(NS(=O)(=O)c2ccc(NS(=O)(=O)c3ccc(Br)cc3)cc2)no1`, the “hERG current change (%, negative = inhibition) at 10uM” value stood at 9.85%.

On to `Clc1cccc(Nc2c3c(nc4ncnn24)CCC3)c1`, for which the “hERG current change (%, negative = inhibition) at 10uM” value is on record as -23.6%.

`Cc1ccc(N2C(=O)CC(N3CCN(c4ccccn4)CC3)C2=O)cc1` (stereo not drawn): the “hERG current change (%, negative = inhibition) at 10uM” value is listed as -6.04%.

As to `Cc1cc(NC(=O)CSCC(=O)Nc2ccc(Cl)c(C(F)(F)F)c2)no1`, the “hERG current change (%, negative = inhibition) at 10uM” value was -12.6%.

Take `CC(=O)Cc1nsc(NC(=O)c2ccc(-c3cc(Cl)ccc3Cl)o2)n1`: the “hERG current change (%, negative = inhibition) at 10uM” value was determined as 18.5%.

For `Cc1ccc(-n2cc[nH]c2=S)c(C)c1`, the “hERG current change (%, negative = inhibition) at 10uM” value turned out to be 18.9%.

In the case of `O=C(Nc1ccc([N+](=O)[O-])cc1)Nc1ccc2c(c1)OCCO2`, the “hERG current change (%, negative = inhibition) at 10uM” value was 24.6%.

With `CCOC(=O)c1ccc(NC(=S)N2CCCC(C)C2)cc1` (stereo not drawn), the “hERG current change (%, negative = inhibition) at 10uM” value is reported as -28.4%.

On to `COc1ccccc1OCC(=O)N(Cc1nc(-c2ccccc2)no1)C1CCCCC1`, for which the “hERG current change (%, negative = inhibition) at 10uM” value came to 9.46%.

For the compound `Cc1cc(C)n(CC(O)Cn2cnc3c2c(=O)n(C)c(=O)n3C)n1` (stereo not drawn), the “hERG current change (%, negative = inhibition) at 10uM” value was -8.95%.

As for `CC(=O)c1ccc(Cc2ccc(C(C)=O)cc2)cc1`, the “hERG current change (%, negative = inhibition) at 10uM” value amounted to 6.02%.

With `O=C(CCc1ccc(S(=O)(=O)NC2CCCCC2)cc1)N(Cc1ccccc1)Cc1ccccc1`, the “hERG current change (%, negative = inhibition) at 10uM” value worked out at 5.41%.

`COc1cc(N=c2oc3c(C)ncc(CO)c3cc2C(N)=O)cc(OC)c1OC`: the “hERG current change (%, negative = inhibition) at 10uM” value was -5.75%.

For `COc1ccc(NC(=O)C(CC(C)C)NC(=O)C2CCCCC2)c(OC)c1` (stereo not drawn), the “hERG current change (%, negative = inhibition) at 10uM” value is listed as -3.27%.

`Cc1cc(C)c(OCC(O)CN2CCN(c3ccccn3)CC2)c(C)c1.Cl` (stereo not drawn): the “hERG current change (%, negative = inhibition) at 10uM” value is listed as -58.3%.

For `CCn1c(SCC(=O)NC2CCCCC2)nnc1-c1cccnc1`, the “hERG current change (%, negative = inhibition) at 10uM” value came out at 10.5%.

For `Cc1cc(S(=O)(=O)NCC(c2ccc3c(c2)OCO3)N2CCOCC2)ccc1F` (stereo not drawn), the “hERG current change (%, negative = inhibition) at 10uM” value is -20.7%.

For the compound `COCn1c(-c2cccc(Br)c2)nc2ccccc21`, the “hERG current change (%, negative = inhibition) at 10uM” value is on record as -37.6%.

On to `COc1cc(NC(=O)c2cc(-c3cccc(O)c3)on2)cc(OC)c1OC`, for which the “hERG current change (%, negative = inhibition) at 10uM” value is listed as -9.97%.

On to `CSc1nc(C)c(CCOC(=O)c2cccc(C)c2)c(=O)[nH]1`, for which the “hERG current change (%, negative = inhibition) at 10uM” value was found to be 26.9%.

For `O=C1/C(=C\c2ccc(Br)cc2)SC(=S)N1NS(=O)(=O)c1ccccc1`, the “hERG current change (%, negative = inhibition) at 10uM” value turned out to be 20.2%.

For the compound `COc1ccc(CC(=O)N(C)C2CCCN(Cc3ccccc3F)C2)cc1OC` (stereo not drawn), the “hERG current change (%, negative = inhibition) at 10uM” value was -4.9%.

As to `CC(C)(C)c1ccc2c(c1)OC(C(=O)N/N=C\c1ccc(-c3cccc(C(=O)O)c3)o1)CO2` (stereo not drawn), the “hERG current change (%, negative = inhibition) at 10uM” value was -4.89%.

Consider `CC1(C)CC(=O)C(C2C3=C(CC(C)(C)CC3=O)Oc3ccccc32)=C(O)C1` (stereo not drawn), for which the “hERG current change (%, negative = inhibition) at 10uM” value turned out to be 14.2%.

For `CN(Cc1cccs1)C(=O)c1cccc(S(=O)(=O)N2CCCCCC2)c1`, the “hERG current change (%, negative = inhibition) at 10uM” value is reported as -59.9%.

For the compound `COc1cc(SC)ccc1C(=O)Nc1ccc2c(c1)OCCO2`, the “hERG current change (%, negative = inhibition) at 10uM” value is on record as -18.4%.

`COc1cccc(CN(C(=O)c2cccc(OC)c2)C2CCS(=O)(=O)C2)c1` (stereo not drawn): the “hERG current change (%, negative = inhibition) at 10uM” value is recorded as -7.02%.

For the compound `CN(CC(=O)Nc1ccccc1Br)C(=O)CCc1nc2ccccc2c(=O)[nH]1`, the “hERG current change (%, negative = inhibition) at 10uM” value is recorded as -15.8%.

Take `CCCCCOC(=O)C1=C(C)NC(=O)NC1c1ccc([N+](=O)[O-])cc1` (stereo not drawn): the “hERG current change (%, negative = inhibition) at 10uM” value was 13%.

Take `N#CCCCSc1ncccc1-c1nc2ccccc2[nH]1`: the “hERG current change (%, negative = inhibition) at 10uM” value is -17.7%.

In the case of `N#Cc1ccc(C2N=C(c3ccccc3)NO2)cc1` (stereo not drawn), the “hERG current change (%, negative = inhibition) at 10uM” value is -1.1%.
